Screen size: about 350,000 compounds; about 9,900 (2.8%) were called active. Inconclusive means that the source gave no clear call. Such entries were picked first, then a sample of the others. Calls follow the shape of the dose curve; as a rule, active = well fitted activation curve with a large enough effect; inconclusive = small, poorly fitted or top-dose-only effect; inactive = no such curve, though single readings can be large or run the other way. No potency is given beside an inconclusive call; the fits are too rough.
Experiment: A quantitative high throughput screen for small molecules that induce DNA re-replication in MCF 10a normal breast cells. Also: nearly all actives have a fitted effect of over 50% in size. As to activity, positive = re-replication: % of control where 0% means no effect.
Settings: MCF 10A DNA re-replication, Hoechst nuclear intensity, 48 h; activity, positive = re-replication: at 46.1 µM (top of the series)
Potency is read from the fitted curve at half-maximal effect; tags tell the direction and shape of the fitted curve.

SMILES | activity, positive = re-replication | Potency
CC(C)(C)OC(=O)N1CCCC(C(=O)Nc2ccc(C(=O)NCc3ccccc3)cc2)C1 (stereo not drawn) | inactive: 21.2% | 
C=CCS/C(N)=N\N=C\c1cc(Br)cc([N+](=O)[O-])c1O | inactive: 14.5% | 
COc1cc2c(cc1OC)CN(C1CCCN(Cc3cc(Cl)ccc3O)C1)CC2 (stereo not drawn) |  | inconclusive [activator, full curve, poor fit]
CCOC(=O)c1c(N/N=C/c2ccncc2)n[nH]c1C |  | inconclusive [activator, single point]
CCN(CC)C(=O)CCc1nnc(CCc2c[nH]c3ccccc23)o1 | inactive: 1.52% | 
COc1ccc(/C=C2\Sc3ccc(C(=O)N4CCN(Cc5ccccc5)CC4)cc3N(C)C2=O)cc1OC |  | active: 20.6 µM
CC1CCc2c(C(=O)Nc3cccc(-c4nn[nH]n4)c3)csc2C1 (stereo not drawn) | inactive: 13.6% | 
O=[N+]([O-])c1cc(S(=O)(=O)N2CCCC2)ccc1N/N=C/c1ccccn1 |  | inconclusive [activator, single point]
CC(C)c1ccccc1NC(=S)NCCCn1ccnc1 |  | active: 0.731 µM
O=C(CCCCCn1c(=S)[nH]c2ccc(N3CCOCC3)cc2c1=O)NC1CCN(Cc2ccccc2)CC1 |  | inconclusive [activator, single point]
COc1ccc(Cl)cc1NC(=O)COC(=O)/C=C/c1c(C)nn(C2CCS(=O)(=O)C2)c1Cl (stereo not drawn) | inactive: -5.11% | 
CCc1ccccc1NC(=O)c1sc2nc(C)cc(C)c2c1N |  | inconclusive [activator, partial curve, poor fit]
NS(=O)(=O)c1ccc(CCNC(=O)CN2CCCCC2)cc1 |  | inconclusive [activator, single point]
NC(=O)c1ccc(NC(=O)C2CCCC2)cc1 |  | inconclusive [activator, single point]
C/C(=N\Nc1ccccc1)c1c(O)cc(C)oc1=O |  | inconclusive [activator, single point]
O=S(=O)(Nc1ccc(C(F)(F)F)cc1)c1cnc[nH]1 |  | inconclusive [activator, full curve, poor fit]
ClCc1nc2ccccc2c2ccccc12 |  | inconclusive [activator, single point]
O=C(N/N=C/c1cc(Cl)c(O)c(Cl)c1)c1cc2c(ccc3ccccc32)o1 |  | inconclusive [activator, single point]
CCOCCOC(=O)Cn1cnc2scc(-c3ccc(C)cc3)c2c1=O | inactive: -11.9% | 
CC(C)(C)c1ccccc1NC(=O)c1cc(-c2ccncc2)nc2ccccc12 |  | inconclusive [activator, single point]
CC(C)n1cc(/C=N/NC(=O)COc2cccc3cccnc23)c2ccccc21 |  | inconclusive [activator, single point]
Cc1c(C(=O)OCc2ccccc2)[nH]c2c1C(=O)CC(c1ccco1)C2 (stereo not drawn) |  | inconclusive [activator, partial curve, poor fit]
CCN(CC)S(=O)(=O)c1cccc(NC(=O)c2cc(-c3cccs3)nn2-c2ccccc2)c1 | inactive: -47.6% | 

SMILES | activity, positive = re-replication | Potency
Cc1nn(-c2ccccc2)c(C)c1C(=O)OCC(=O)NC12CC3CC(CC(C3)C1)C2 |  | inconclusive [activator, full curve, poor fit]
NC(=O)CC(NC(=O)Cc1ccc(Cl)cc1)c1ccc(NC2CC3CCC2C3)c([N+](=O)[O-])c1 (stereo not drawn) | inactive: -9.84% | 
COc1cc(C(C)=O)ccc1OCC(=O)Nc1ccccc1N1CCCCC1 |  | inconclusive [activator, single point]
COc1ccc(C(CNC(=O)c2oc3ccc(F)cc3c2C)N2CCCCC2)cc1 (stereo not drawn) | inactive: -16.2% | 
CC1CCCCN1C(=O)C1COc2ccccc2O1 (stereo not drawn) | inactive: 0.204% | 
CC1=CC(C)(C)Nc2ccc(OC(=O)C(C)N3C(=O)c4ccccc4C3=O)cc21 (stereo not drawn) |  | inconclusive [activator, partial curve, poor fit]
Clc1ccccc1N=C1SCCS1 | inactive: 0% | 
Cc1cc(/C=c2\sc3nc4ccccc4n3c2=O)c(C)n1-c1ccc(C(=O)O)cc1 |  | inconclusive [activator, partial curve, poor fit]
c1cc2ccc3ccc(-n4cnnn4)c4ccc(c1)c2c34 |  | inconclusive [activator, single point]
Cn1c2ccccc2c(=O)c2cc(C#Cc3ccccn3)ccc21 | inactive: -21.1% | 
N#Cc1c(NCCN)nc(-c2ccccc2)c2c1CCCC2 |  | inconclusive [activator, single point]
CC(C)(C)c1ccc(CCC2OCC(CN3CCOCC3)O2)cc1 (stereo not drawn) |  | inconclusive [activator, partial curve, poor fit]
COc1cccc(Cn2nc3c4cc(F)ccc4n(Cc4ccc(F)cc4)cc-3c2=O)c1 |  | inconclusive [activator, single point]
COC(=O)/C=C1\SC(=NC(=O)c2ccc(-c3ccccc3)cc2)NC1=O |  | inconclusive [activator, single point]
Cc1ccc(NC(=S)NNC(=O)c2nn(C)cc2Cl)cc1 | inactive: 1.13% | 
COc1ccc([N+](=O)[O-])cc1NC(=O)C(C)OC(=O)CSC(C)C(=O)Nc1cc(C)on1 (stereo not drawn) |  | inconclusive [activator, single point]
COc1ccc(OCCSc2nc(C)nc3ccccc23)cc1 |  | inconclusive [activator, single point]
c1ccc(N2CCOCC2)c(Nc2nc3ccccc3n3cnnc23)c1 | inactive: 12.6% | 
COCCNS(=O)(=O)c1ccc(Cl)c(C(=O)NC2CCN(Cc3ccccc3)CC2)c1 | inactive: 4.12% | 
COc1cc(O)c2c(=O)cc(-c3ccccc3)oc2c1 |  | inconclusive [activator, full curve, poor fit]
CN1CCN(c2nc(NCCOC34CC5CC(CC(C5)C3)C4)nc(OCC(F)(F)F)n2)CC1 | inactive: 3.26% | 
C=CCNC1=C(Cl)C(=O)c2ccccc2C1=O |  | inconclusive [activator, single point]
CC[C@@H](C)[C@@H](C(=O)N1CCN(C(=O)OC(C)(C)C)CC1)n1cc(CCCCNC(=O)OC(C)(C)C)nn1 |  | inconclusive [activator, single point]

SMILES | activity, positive = re-replication | Potency
O=S(=O)(/N=C(/Nc1ccccc1)c1ccccc1O)c1ccccc1 | inactive: 4.93% | 
COc1ccccc1-c1nnc(-c2ccc(F)cc2)o1 | inactive: 1.49% | 
CCc1ccc(-c2nc(CS(=O)CC(=O)O)c(C)o2)cc1 (stereo not drawn) |  | inconclusive [activator, single point]
Cc1ccc(-n2nc(C)c3c2C(Br)C(C)(C)CC3=O)nc1 (stereo not drawn) |  | inconclusive [activator, partial curve, poor fit]
CC1(C)C(C=C(Cl)Cl)C1C(=O)Nc1ccc([N+](=O)[O-])cc1 (stereo not drawn) |  | inconclusive [activator, single point]
COc1ccc(C2/C=C\CN3CCC[C@H]3C(=O)N2Cc2ccc(F)cc2)cc1 (stereo partly drawn) | inactive: 10.7% | 
COc1ccc([C@H]2CC(=O)C=C(c3ccccc3-c3ccccc3)C2)cc1 |  | active: 16.4 µM
O=[N+]([O-])c1ccccc1S(=O)(=O)N1CCN(Cc2ccsc2)CC1 |  | inconclusive [activator, single point]
COc1ccc(/C=C2/SC(c3ccc(C)cc3)=NC2=O)cc1OC |  | inconclusive [activator, single point]
O=C(Oc1ccc(F)cc1C(=O)/C=C/c1cccs1)c1cccc([N+](=O)[O-])c1 |  | inconclusive [activator, single point]
COc1ccc(OCc2nnc(SCC(=O)Nc3nnc(C4CC4)s3)n2C)cc1 |  | inconclusive [activator, partial curve, poor fit]
O=C(Nc1ccccc1)OC1CCC2CC1CCC2OC(=O)Nc1ccccc1 (stereo not drawn) |  | inconclusive [activator, partial curve]
Cc1ccccc1C1c2[nH]c3ccccc3c2C[C@H]2C(=O)N(c3ccccc3C(=O)NCCN3CCOCC3)C(=O)N12 (stereo partly drawn) |  | inconclusive [activator, partial curve, poor fit]
O=C(CCc1nnc(C2CCCCC2)o1)NCc1cccc(-n2cccn2)c1 | inactive: 0.45% | 
CSCCC(NC(=O)c1ccccc1)C(=O)NNC(=O)c1csc(N2CCOCC2)n1 (stereo not drawn) | inactive: -0.337% | 
Cc1cccc(NC(=S)N2CCC(C(=O)c3ccc(F)cc3)CC2)c1 |  | inconclusive [activator, partial curve, poor fit]
CCc1cccc(NC(=O)C2CCCN(c3ncnc4c3nc3n4CCCCC3)C2)c1 (stereo not drawn) |  | inconclusive [activator, single point]
CC(=O)N1Cc2[nH]c3ccccc3c2CC1C(=O)O (stereo not drawn) |  | inconclusive [activator, single point]
COCCn1c(=NC(=O)c2ccc(S(=O)(=O)N3CCCc4ccccc43)cc2)sc2cc(S(C)(=O)=O)ccc21 |  | inconclusive [activator, partial curve]
C=CCn1c(O)c(C2=c3ccccc3=NC2=O)sc1=Nc1ccc(O)cc1 |  | inconclusive [activator, single point]
CCC(=NCCc1c(C)[nH]c2ccc(OC(F)(F)F)cc12)C1=C(O)CC(c2ccccc2)CC1=O (stereo not drawn) |  | inconclusive [activator, full curve, poor fit]
COc1ccc(C(=O)NCCc2ccccc2F)cc1OC1CCN(C(C)=O)CC1 | inactive: 4.17% | 

From PubChem BioAssay AID624296 (National Center for Advancing Translational Sciences (NCATS), 2012)
